Data published in patent US20230416329A1, “A PEPTIDE WITH DISULFIDE BONDS AND INHIBITORY ACTIVITY AGAINST SERINE PROTEASES, DERIVED HYBRID PEPTIDES THEREOF, AND USES THEREOF” (INSTITUTE OF MATERIA MEDICA , CHINESE ACADEMY OF MEDICAL …, priority 2020, published 2023).
Part of at least one peptide drawing is inferred or uncertain, most often the ends.

Tested on: normal ICR mice
Test: In vivo hypoglycemic activity of GLP-1 analogues, subcutaneous administration, oral glucose loading
Set-up: species or system mouse
Conditions: subcutaneous 1 μmol/kg, mean; for AUC (blood glucose-time curve): 0-120 min; for Blood glucose 0 min: oral glucose loading 2 g/kg; for Blood glucose 30 min: 30 min after oral glucose loading; for Blood glucose 60 min: 60 min after oral glucose loading; for Blood glucose 120 min: 120 min after oral glucose loading
Procedure: FIG. 21. In vivo hypoglycemic activities of GLP-1 analogues by subcutaneous administration. Normal ICR mice were subcutaneously injected with GLP-1 and its analogues or corresponding volumes of saline (1.0 μmol/kg, n=10). After 30 min, glucose solution (2 g/kg) was administered by gavage, and blood was collected from the tail tip at 30, 60, and 120 min after glucose administration. Blood glucose was measured using glucose oxidase method, and blood glucose values and area under the blood glucose curve (AUC) were calculated at each timepoint.
The day before the experiment, all of the animals were fasted for 15-16 hours with water ad libitum. On the day of the experiment, the animals were randomly divided according to body weight (n=10). Firstly, the blood was collected from the tail tip at 0 hour, and then the animals were administered subcutaneously with GLP-1 analog (SEQ ID NOs: 194-201, 1 μmol/kg) or saline. After 30 minutes, the animals were administered by gavage with glucose solution (2 g/kg), and the blood was collected from the tail tip at 30, 60, and 120 minutes later. Blood glucose was measured using glucose oxidase method. The blood glucose and area under the blood glucose-time curve (AUC) were calculated.

| SMILES | AUC (blood glucose-time curve) | Blood glucose 0 min | Blood glucose 30 min | Blood glucose 60 min | Blood glucose 120 min |
| --- | --- | --- | --- | --- | --- |
| CC[C@H](C)[C@H](NC(=O)[C@H](Cc1ccccc1)NC(=O)[C@H](CCC(=O)O)NC(=O)[C@H](CCCCN)NC(=O)[C@H](C)NC(=O)[C@H](C)NC(=O)[C@H](CCC(N)=O)NC(=O)CNC(=O)[C@H](CCC(=O)O)NC(=O)[C@H](CC(C)C)NC(=O)[C@H](Cc1ccc(O)cc1)NC(=O)[C@H](CO)NC(=O)[C@H](CO)NC(=O)[C@@H](NC(=O)[C@H](CC(=O)O)NC(=O)[C@H](CO)NC(=O)[C@@H](NC(=O)[C@H](Cc1ccccc1)NC(=O)[C@@H](NC(=O)CNC(=O)[C@H](CCC(=O)O)NC(=O)[C@H](C)NC(=O)[C@H](Cc1c[nH]cn1)NC(=O)CNC(=O)CNC(=O)[C@H](CCCNC(=N)N)NC(=O)[C@H](CO)NC(=O)[C@H](Cc1ccccc1)NC(=O)[C@H](CCCNC(=N)N)NC(=O)[C@H](CCC(N)=O)NC(=O)CNC(=O)CNC(=O)[C@@H]1CCCN1C(=O)[C@H](Cc1ccccc1)NC(=O)[C@@H]1CSSC[C@H](NC(=O)[C@H](CCCNC(=N)N)NC(=O)CN)C(=O)N[C@@H]([C@@H](C)O)C(=O)N[C@@H](CCCCN)C(=O)N[C@@H](CO)C(=O)N[C@@H]([C@@H](C)CC)C(=O)N2CCC[C@H]2C(=O)N2CCC[C@H]2C(=O)N[C@@H]([C@@H](C)CC)C(=O)N1)[C@@H](C)O)[C@@H](C)O)C(C)C)C(=O)N[C@@H](C)C(=O)N[C@@H](Cc1c[nH]c2ccccc12)C(=O)N[C@@H](CC(C)C)C(=O)N[C@H](C(=O)N[C@@H](CCCCN)C(=O)NCC(=O)N[C@@H](CCCNC(=N)N)C(=O)NCC(=O)NCC(=O)N[C@@H](CCCCN)C(=O)O)C(C)C [BT1-N-GLP-1] | 151.4 mg·h/dL | 57.3 mg/dL | 114.3 mg/dL | 69.1 mg/dL | 56.1 mg/dL |
| CC[C@H](C)[C@H](NC(=O)[C@H](Cc1ccccc1)NC(=O)[C@H](CCC(=O)O)NC(=O)[C@H](CCCCN)NC(=O)[C@H](C)NC(=O)[C@H](C)NC(=O)[C@H](CCC(N)=O)NC(=O)CNC(=O)[C@H](CCC(=O)O)NC(=O)[C@H](CC(C)C)NC(=O)[C@H](Cc1ccc(O)cc1)NC(=O)[C@H](CO)NC(=O)[C@H](CO)NC(=O)[C@@H](NC(=O)[C@H](CC(=O)O)NC(=O)[C@H](CO)NC(=O)[C@@H](NC(=O)[C@H](Cc1ccccc1)NC(=O)[C@@H](NC(=O)CNC(=O)[C@H](CCC(=O)O)NC(=O)[C@H](C)NC(=O)[C@H](Cc1c[nH]cn1)NC(=O)CNC(=O)CNC(=O)[C@H](CCCNC(=N)N)NC(=O)[C@H](CO)NC(=O)[C@H](Cc1ccccc1)NC(=O)[C@H](CCCNC(=N)N)NC(=O)[C@H](CCC(N)=O)NC(=O)CNC(=O)CNC(=O)[C@H](Cc1ccccc1)NC(=O)[C@@H]1CSSC[C@H](N)C(=O)NCC(=O)N[C@@H](CCCNC(=N)N)C(=O)N[C@@H](C)C(=O)N[C@@H]([C@@H](C)O)C(=O)N[C@@H](CCCCN)C(=O)N[C@@H](CO)C(=O)N[C@@H]([C@@H](C)CC)C(=O)N2CCC[C@H]2C(=O)N2CCC[C@H]2C(=O)N[C@@H]([C@@H](C)CC)C(=O)N1)[C@@H](C)O)[C@@H](C)O)C(C)C)C(=O)N[C@@H](C)C(=O)N[C@@H](Cc1c[nH]c2ccccc12)C(=O)N[C@@H](CC(C)C)C(=O)N[C@H](C(=O)N[C@@H](CCCCN)C(=O)NCC(=O)N[C@@H](CCCNC(=N)N)C(=O)NCC(=O)NCC(=O)N[C@@H](CCCCN)C(=O)O)C(C)C [BT9-N-GLP-1] | 170.3 mg·h/dL | 57.9 mg/dL | 96.0 mg/dL | 99.7 mg/dL | 66.1 mg/dL |
| CC[C@H](C)[C@H](NC(=O)[C@H](Cc1ccccc1)NC(=O)[C@H](CCC(=O)O)NC(=O)[C@H](CCCCN)NC(=O)[C@H](C)NC(=O)[C@H](C)NC(=O)[C@H](CCC(N)=O)NC(=O)CNC(=O)[C@H](CCC(=O)O)NC(=O)[C@H](CC(C)C)NC(=O)[C@H](Cc1ccc(O)cc1)NC(=O)[C@H](CO)NC(=O)[C@H](CO)NC(=O)[C@@H](NC(=O)[C@H](CC(=O)O)NC(=O)[C@H](CO)NC(=O)[C@@H](NC(=O)[C@H](Cc1ccccc1)NC(=O)[C@@H](NC(=O)CNC(=O)[C@H](CCC(=O)O)NC(=O)[C@H](C)NC(=O)[C@H](Cc1c[nH]cn1)NC(=O)CNC(=O)CNC(=O)[C@H](CCCNC(=N)N)NC(=O)[C@H](CO)NC(=O)[C@H](Cc1ccccc1)NC(=O)[C@H](CCCNC(=N)N)NC(=O)[C@H](CCC(N)=O)NC(=O)CN)[C@@H](C)O)[C@@H](C)O)C(C)C)C(=O)N[C@@H](C)C(=O)N[C@@H](Cc1c[nH]c2ccccc12)C(=O)N[C@@H](CC(C)C)C(=O)N[C@H](C(=O)N[C@@H](CCCCN)C(=O)NCC(=O)N[C@@H](CCCNC(=N)N)C(=O)NCC(=O)NCC(=O)N[C@@H](CCCCN)C(=O)NCC(=O)N[C@@H](CCCNC(=N)N)C(=O)N[C@H]1CSSC[C@@H](C(=O)N[C@@H](Cc2ccccc2)C(=O)N2CCC[C@H]2C(=O)O)NC(=O)[C@H]([C@@H](C)CC)NC(=O)[C@@H]2CCCN2C(=O)[C@@H]2CCCN2C(=O)[C@H]([C@@H](C)CC)NC(=O)[C@H](CO)NC(=O)[C@H](CCCCN)NC(=O)[C@H]([C@@H](C)O)NC1=O)C(C)C [N-GLP-1-BT1] | 159.2 mg·h/dL | 62.4 mg/dL | 83.7 mg/dL | 93.5 mg/dL | 63.2 mg/dL |
| CC[C@H](C)[C@H](NC(=O)[C@H](Cc1ccccc1)NC(=O)[C@H](CCC(=O)O)NC(=O)[C@H](CCCCN)NC(=O)[C@H](C)NC(=O)[C@H](C)NC(=O)[C@H](CCC(N)=O)NC(=O)CNC(=O)[C@H](CCC(=O)O)NC(=O)[C@H](CC(C)C)NC(=O)[C@H](Cc1ccc(O)cc1)NC(=O)[C@H](CO)NC(=O)[C@H](CO)NC(=O)[C@@H](NC(=O)[C@H](CC(=O)O)NC(=O)[C@H](CO)NC(=O)[C@@H](NC(=O)[C@H](Cc1ccccc1)NC(=O)[C@@H](NC(=O)CNC(=O)[C@H](CCC(=O)O)NC(=O)[C@H](C)NC(=O)[C@H](Cc1c[nH]cn1)NC(=O)CNC(=O)CNC(=O)[C@H](CCCNC(=N)N)NC(=O)[C@H](CO)NC(=O)[C@H](Cc1ccccc1)NC(=O)[C@H](CCCNC(=N)N)NC(=O)[C@H](CCC(N)=O)NC(=O)CN)[C@@H](C)O)[C@@H](C)O)C(C)C)C(=O)N[C@@H](C)C(=O)N[C@@H](Cc1c[nH]c2ccccc12)C(=O)N[C@@H](CC(C)C)C(=O)N[C@H](C(=O)N[C@@H](CCCCN)C(=O)NCC(=O)N[C@@H](CCCNC(=N)N)C(=O)NCC(=O)NCC(=O)N[C@@H](CCCCN)C(=O)NCC(=O)N[C@H]1CSSC[C@@H](C(=O)N[C@@H](Cc2ccccc2)C(=O)O)NC(=O)[C@H]([C@@H](C)CC)NC(=O)[C@@H]2CCCN2C(=O)[C@@H]2CCCN2C(=O)[C@H]([C@@H](C)CC)NC(=O)[C@H](CO)NC(=O)[C@H](CCCCN)NC(=O)[C@H]([C@@H](C)O)NC(=O)[C@H](C)NC(=O)[C@H](CCCNC(=N)N)NC(=O)CNC1=O)C(C)C [N-GLP-1-BT9] | 170.8 mg·h/dL | 55.8 mg/dL | 100.6 mg/dL | 101.7 mg/dL | 61.5 mg/dL |
